# Laboratory results taken from article PMC9911399, “Two distinct binding modes provide the RNA-binding protein RbFox with extraordinary sequence specificity”.
# Substitutions are numbered along the chain they refer to; changes in the protein carry UniProt numbers. The list shows a part of the results.
# T1: RBFOX1 RRM (Homo sapiens, UniProt Q9NWB1 109-208)
# T1 sequence: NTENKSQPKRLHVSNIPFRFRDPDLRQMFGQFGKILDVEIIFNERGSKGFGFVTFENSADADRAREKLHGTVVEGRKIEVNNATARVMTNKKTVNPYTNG
# B1: ACGGGUA (DNA:RNA)
# RNA: GGGAGACCGGAAUUCAGAUUGUCCACGGGUAUUAAAUCCCGUCGUAGCCACCA
# DNA 1: CAATCTGAATTCCGGTCTCCC
# DNA 2: TGGTGGCTACGACGGGATT
# B2: GGGGUGA (DNA:RNA)
# RNA: B1 RNA with A25G, C26G, G29U, U30G
# DNA 1: CAATCTGAATTCCGGTCTCCC
# DNA 2: TGGTGGCTACGACGGGATT
# B3: GGCGGUC (DNA:RNA)
# RNA: B1 RNA with A25G, C26G, G27C, A31C
# DNA 1: CAATCTGAATTCCGGTCTCCC
# DNA 2: TGGTGGCTACGACGGGATT
# B4: GAUUUGA (DNA:RNA)
# RNA: B1 RNA with A25G, C26A, G27U, G28U, G29U, U30G
# DNA 1: CAATCTGAATTCCGGTCTCCC
# DNA 2: TGGTGGCTACGACGGGATT
# B5: GUAAAGU (DNA:RNA)
# RNA: GGGAGACCGGAAUUCAGAUUGUCCGUAAAGUUUAAAUCCCGUCGUAGCCACCA
# DNA 1: CAATCTGAATTCCGGTCTCCC
# DNA 2: TGGTGGCTACGACGGGATT
# B6: GCCAGUU (DNA:RNA)
# RNA: B1 RNA with A25G, G27C, G28A, A31U
# DNA 1: CAATCTGAATTCCGGTCTCCC
# DNA 2: TGGTGGCTACGACGGGATT
# B7: CAGUCAA (DNA:RNA)
# RNA: B1 RNA with A25C, C26A, G28U, G29C, U30A
# DNA 1: CAATCTGAATTCCGGTCTCCC
# DNA 2: TGGTGGCTACGACGGGATT
# B8: AGUAUUC (DNA:RNA)
# RNA: B1 RNA with C26G, G27U, G28A, G29U, A31C
# DNA 1: CAATCTGAATTCCGGTCTCCC
# DNA 2: TGGTGGCTACGACGGGATT
# B9: CAAACCA (DNA:RNA)
# RNA: B5 RNA with G25C, U26A, A29C, G30C, U31A
# DNA 1: CAATCTGAATTCCGGTCTCCC
# DNA 2: TGGTGGCTACGACGGGATT
# B10: UCAGUUC (DNA:RNA)
# RNA: B1 RNA with A25U, G27A, G29U, A31C
# DNA 1: CAATCTGAATTCCGGTCTCCC
# DNA 2: TGGTGGCTACGACGGGATT
# B11: UAAAUCU (DNA:RNA)
# RNA: B5 RNA with G25U, U26A, A29U, G30C
# DNA 1: CAATCTGAATTCCGGTCTCCC
# DNA 2: TGGTGGCTACGACGGGATT
# B12: GCUUCAC (DNA:RNA)
# RNA: B1 RNA with A25G, G27U, G28U, G29C, U30A, A31C
# DNA 1: CAATCTGAATTCCGGTCTCCC
# DNA 2: TGGTGGCTACGACGGGATT
# B13: CAACACG (DNA:RNA)
# RNA: B5 RNA with G25C, U26A, A28C, G30C, U31G
# DNA 1: CAATCTGAATTCCGGTCTCCC
# DNA 2: TGGTGGCTACGACGGGATT
# B14: UGUUCGA (DNA:RNA)
# RNA: B1 RNA with A25U, C26G, G27U, G28U, G29C, U30G
# DNA 1: CAATCTGAATTCCGGTCTCCC
# DNA 2: TGGTGGCTACGACGGGATT
# B15: GUUUAAU (DNA:RNA)
# RNA: B5 RNA with A27U, A28U, G30A
# DNA 1: CAATCTGAATTCCGGTCTCCC
# DNA 2: TGGTGGCTACGACGGGATT
# B16: AGUAUGA (DNA:RNA)
# RNA: B1 RNA with C26G, G27U, G28A, G29U, U30G
# DNA 1: CAATCTGAATTCCGGTCTCCC
# DNA 2: TGGTGGCTACGACGGGATT
# B17: GUUCGAU (DNA:RNA)
# RNA: B5 RNA with A27U, A28C, A29G, G30A
# DNA 1: CAATCTGAATTCCGGTCTCCC
# DNA 2: TGGTGGCTACGACGGGATT
# B18: UGAUGCC (DNA:RNA)
# RNA: B1 RNA with A25U, C26G, G27A, G28U, U30C, A31C
# DNA 1: CAATCTGAATTCCGGTCTCCC
# DNA 2: TGGTGGCTACGACGGGATT
# B19: CGUCCUA (DNA:RNA)
# RNA: B1 RNA with A25C, C26G, G27U, G28C, G29C
# DNA 1: CAATCTGAATTCCGGTCTCCC
# DNA 2: TGGTGGCTACGACGGGATT
# B20: CGUCGGA (DNA:RNA)
# RNA: B1 RNA with A25C, C26G, G27U, G28C, U30G
# DNA 1: CAATCTGAATTCCGGTCTCCC
# DNA 2: TGGTGGCTACGACGGGATT
# B21: GAUCGAU (DNA:RNA)
# RNA: B5 RNA with U26A, A27U, A28C, A29G, G30A
# DNA 1: CAATCTGAATTCCGGTCTCCC
# DNA 2: TGGTGGCTACGACGGGATT
# B22: AUGCGGU (DNA:RNA)
# RNA: B1 RNA with C26U, G28C, U30G, A31U
# DNA 1: CAATCTGAATTCCGGTCTCCC
# DNA 2: TGGTGGCTACGACGGGATT
# B23: UUACACA (DNA:RNA)
# RNA: B5 RNA with G25U, A28C, G30C, U31A
# DNA 1: CAATCTGAATTCCGGTCTCCC
# DNA 2: TGGTGGCTACGACGGGATT
# B24: CAUCUGU (DNA:RNA)
# RNA: B5 RNA with G25C, U26A, A27U, A28C, A29U
# DNA 1: CAATCTGAATTCCGGTCTCCC
# DNA 2: TGGTGGCTACGACGGGATT
# B25: CUUGUAU (DNA:RNA)
# RNA: B5 RNA with G25C, A27U, A28G, A29U, G30A
# DNA 1: CAATCTGAATTCCGGTCTCCC
# DNA 2: TGGTGGCTACGACGGGATT
# B26: GAGUCAG (DNA:RNA)
# RNA: B1 RNA with A25G, C26A, G28U, G29C, U30A, A31G
# DNA 1: CAATCTGAATTCCGGTCTCCC
# DNA 2: TGGTGGCTACGACGGGATT
# B27: GUGGGAC (DNA:RNA)
# RNA: B1 RNA with A25G, C26U, U30A, A31C
# DNA 1: CAATCTGAATTCCGGTCTCCC
# DNA 2: TGGTGGCTACGACGGGATT
# B28: UGCAUCA (DNA:RNA)
# RNA: B1 RNA with A25U, C26G, G27C, G28A, G29U, U30C
# DNA 1: CAATCTGAATTCCGGTCTCCC
# DNA 2: TGGTGGCTACGACGGGATT
# B29: CGUUAGU (DNA:RNA)
# RNA: B5 RNA with G25C, U26G, A27U, A28U
# DNA 1: CAATCTGAATTCCGGTCTCCC
# DNA 2: TGGTGGCTACGACGGGATT
# B30: UGCAACU (DNA:RNA)
# RNA: B5 RNA with G25U, U26G, A27C, G30C
# DNA 1: CAATCTGAATTCCGGTCTCCC
# DNA 2: TGGTGGCTACGACGGGATT
# B31: CGCUGCU (DNA:RNA)
# RNA: B1 RNA with A25C, C26G, G27C, G28U, U30C, A31U
# DNA 1: CAATCTGAATTCCGGTCTCCC
# DNA 2: TGGTGGCTACGACGGGATT
# Target: T1, RBFOX1 RRM
# Assay: EMSA; HiTS-Eq, 1 nM pool, 10 min; buffer printed only for the single-RNA assays: 10 mM Tris pH 7.5, 150 mM NaCl, 3.4 mM EDTA, 0.001% NP-40, 30 C
# Conditions: tags: His6 N-terminal (pET28a); label: 5' 32P
# Outline: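 Purified RbFox RRM (wild type or mutant) was equilibrated for 10 min in 50 µL with 1 nM of a 5′-radiolabelled pool of RNA with 7 randomized nucleotides, its flanks annealed to DNA oligonucleotides, across increasing protein concentrations. Free RNA was separated by 8% native PAGE, excised, reverse-transcribed, PCR-barcoded and sequenced on an Illumina HiSeq 2500. Relative association constants came from read-count changes of each variant against the control reaction, normalised to the cognate motif.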
row,Binder,binding signal
1,B1,0.0125 KA relative to UGCAUGU
2,B2,0.0239 KA relative to UGCAUGU
3,B3,0.0152 KA relative to UGCAUGU
4,B4,0.0237 KA relative to UGCAUGU
5,B5,0.00819 KA relative to UGCAUGU
6,B6,0.0144 KA relative to UGCAUGU
7,B7,0.00279 KA relative to UGCAUGU
8,B8,0.0101 KA relative to UGCAUGU
9,B9,0.00218 KA relative to UGCAUGU
10,B10,0.0122 KA relative to UGCAUGU
11,B11,0.00488 KA relative to UGCAUGU
12,B12,0.0102 KA relative to UGCAUGU
13,B13,0.00419 KA relative to UGCAUGU
14,B14,0.0305 KA relative to UGCAUGU
15,B15,0.00608 KA relative to UGCAUGU
16,B16,0.0137 KA relative to UGCAUGU

row,Binder,binding signal
1,B17,0.0194 KA relative to UGCAUGU
2,B18,0.0121 KA relative to UGCAUGU
3,B19,0.00311 KA relative to UGCAUGU
4,B20,0.00462 KA relative to UGCAUGU
5,B21,0.0183 KA relative to UGCAUGU
6,B22,0.012 KA relative to UGCAUGU
7,B23,0.00244 KA relative to UGCAUGU
8,B24,0.00671 KA relative to UGCAUGU
9,B25,0.0109 KA relative to UGCAUGU
10,B26,0.0127 KA relative to UGCAUGU
11,B27,0.0114 KA relative to UGCAUGU
12,B28,0.0118 KA relative to UGCAUGU
13,B29,0.00958 KA relative to UGCAUGU
14,B30,0.0132 KA relative to UGCAUGU
15,B31,0.0168 KA relative to UGCAUGU
